According to PubChem BioAssay AID1745853 (National Center for Advancing Translational Sciences (NCATS), 2022):
This is one part of the list. Shown are side measurements of this screen, not its main read-out; they come without a call. Square brackets hold non-standard residues; d marks the D form. Peptide text beside a SMILES is read from it. pGlu = O=C1CC[C@@H](C(=O)O)N1; Thz = O=C(O)[C@@H]1CSCN1

Columns and labels:
Assay in all cases: Primary Screen for Target Class Profiling of Small Molecule Inhibitors of Methyltransferases
[1] = target: Glycine N-methyltransferase (Homo sapiens) (UniProt Q14749); conditions: purified enzyme, MTase-Glo SAH luminescence; measured here: GNMT inhibition; at 40 µM; stronger effect = lower value
How it was run: (§1)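 Each enzyme was assayed with SAM and its substrate. SAH formation detected by MTase-Glo luminescence; single-point 40 uM screen[…].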

[2] = target: Guanidinoacetate N-methyltransferase (Homo sapiens) (UniProt Q14353); conditions: purified enzyme, MTase-Glo SAH luminescence; measured here: GAMT inhibition; at 40 µM; stronger effect = lower value
How it was run: as §1

[3] = target: Histamine N-methyltransferase (Homo sapiens) (UniProt P50135); conditions: purified enzyme, MTase-Glo SAH luminescence; measured here: HNMT inhibition; at 40 µM; stronger effect = lower value
How it was run: as §1

[4] = target: Nicotinamide N-methyltransferase (Homo sapiens) (UniProt P40261); conditions: purified enzyme, MTase-Glo SAH luminescence; measured here: NNMT inhibition; at 40 µM; stronger effect = lower value
How it was run: as §1

[5] = target: Phenylethanolamine N-methyltransferase (Homo sapiens) (UniProt P11086); conditions: purified enzyme, MTase-Glo SAH luminescence; measured here: PNMT inhibition; at 40 µM; stronger effect = lower value
How it was run: as §1
% is set by controls: 0 for no effect and ±100 for the full control effect.

Structure (SMILES)	activity change, negative = inhibition [1] [%]	activity change, negative = inhibition [2] [%]	activity change, negative = inhibition [3] [%]	activity change, negative = inhibition [4] [%]	activity change, negative = inhibition [5] [%]
CCC1(c2ccccc2)C(=O)NCNC1=O	-3.64	-0.776	-0.481	-10.3	-3.76
CC(C)CNC(=O)c1ccc2c(=O)n(C)c3nn(Cc4cccc(F)c4)c(=O)n3c2c1	1.4	0.36	6.6	2.91	4.95
Cc1ccc(Nc2cc(-c3cccc(N4C(=O)c5ccccc5C4=O)c3)ncn2)cc1NS(C)(=O)=O	-8.84	-10.2	-0.81	-32.6	-25.3
COc1cccc(N2C(=O)CSc3c(c4ccccc4n3C)C2C(=O)NCc2ccc(F)cc2)c1 (stereo unspecified)	-1.68	0	5.63	0.751	1.65
CN(CCCNC(=O)c1ccc2nc3c(c(Cl)c2c1)CCCC3)Cc1ccccc1	-13.6	7.09	-47.3	-32.2	-7.76
CC1CCN(S(=O)(=O)c2ccc3c(ccn3CC(=O)NCCc3cccs3)c2)CC1	5.88	1.09	4.19	-0.291	1.19
CCCCOC(=O)COc1ccc2c(-c3ccccc3)cc(=O)oc2c1	-5.37	2.8	-2.53	-4.36	-11.4
Cc1cc(C)cc(NC(=O)N2CCC(CCc3nc(C4CCOCC4)no3)CC2)c1	-6.2	-9.11	-2.55	-8.29	-5.19
CCOC(=O)c1cc2n(n1)CC(C)(C(=O)NCc1ccc(C)cc1)N(c1cc(C)cc(C)c1)C2=O (stereo unspecified)	2.43	1.01	4.99	2.48	3.35
CC(C)CNC(=O)c1ccc2c(=O)nc3c(-c4cccc(F)c4)n[nH]n3c2c1	-0.201	3.79	1.59	2.53	0.409
O=C(c1cccc(OC2CN(C3CCSCC3)C2)c1)N1CCCC1	-3.18	-1.95	-5.57	-6.31	0.774
CCN1c2cc(C(=O)NCCc3ccccc3)ccc2C(=O)N2CCCCCC21 (stereo unspecified)	-5.07	-5.83	-10	-11.9	-9.4
O=C1CC(=O)Nc2cc(S(=O)(=O)Nc3ccc(Br)cc3F)ccc2N1	14.6	4.6	14.4	7.11	7.89
CC(C)c1ccc(NS(=O)(=O)c2cc3c(cc2Cl)n(C)c(=O)n3C)cc1	1.76	0	-0.829	-9.12	-0.28
CCc1ccc(N2C(=O)CSc3c(c4ccccc4n3C)C2C(=O)NCCCOC(C)C)cc1 (stereo unspecified)	2.85	2.66	-4.15	-3.06	-1.87
COc1ccccc1CNc1nc2c(S(=O)(=O)c3ccc(C)c(C)c3)nnn2c2ccccc12	-5.43	1.18	-2.85	-0.843	-6.7
Cc1nn(CC(=O)NCCCN2CCCCC2)c(=O)c2nc(-c3ccccc3)sc12	-7.82	-5.93	-36.4	-8.05	-2.68
Cc1cc2c(cc3n2CC(C)(C(=O)NC2CCCCCCC2)N(Cc2cccnc2)C3=O)o1 (stereo unspecified)	-5.93	0	6.53	-5.24	-2.17
CCCCCC(=O)N1C[C@H](C(=O)NC)[C@H]2c3ccccc3N(CC3CC3)C(=O)[C@]21C	-0.557	-0.025	-0.207	-9.13	10.3
COCCNC(=O)C(NC(=O)c1cccc(OC)c1)C1CCN(C(=O)COC)CC1 (stereo unspecified)	-3.89	-5.07	-1.52	-5.7	0.637

Structure (SMILES)	activity change, negative = inhibition [1] [%]	activity change, negative = inhibition [2] [%]	activity change, negative = inhibition [3] [%]	activity change, negative = inhibition [4] [%]	activity change, negative = inhibition [5] [%]
O=[S+]([O-])(c1cccs1)N1CCCN(c2nc3ncccc3o2)CC1	-10.7	-4.69	-5.34	-18.5	-3.74
Cc1ccc(NC(=O)CSc2nnc3n(Cc4ccccc4)c(=O)c4ccccc4n23)cc1C	-5.66	-2	-1.77	-9.41	-4.85
Cc1cc(CN2CCc3nc(C(C)C)nc(-c4ccc(Cl)cc4)c3CC2)no1	-8.59	-8.28	-5.86	-15.1	-7.63
COc1ccc2[nH]c(=O)c(CCC(=O)NC(C)c3cn(C)nc3C)cc2c1 (stereo unspecified)	-10.7	-9.02	-3.26	-12.6	-10.7
Cn1cnc(S(=O)(=O)N[C@H]2CCN(C(=O)c3ccco3)[C@H](C(=O)N[C@@H](Cc3cccs3)C(N)=O)C2)c1	1.38	-0.58	0.967	0.894	-2.44
COc1cccc(Nc2ccnc(-c3nnc(C)n3C3CCCCC3)c2)c1	-7.63	-7.34	-9.23	-59.5	-10.1
C=C(C(=O)O)C1CC(OC(=O)CC(C)CC)C2(C)CCCC(=C)C2C1 (stereo unspecified)	-2.95	-1.02	9.32	-22	-10.2
CCCn1c(=O)c2ccc(C(=O)NC3CCCCC3)cc2n2c(=O)n(Cc3cccc(C)c3)nc12	2	1.56	3.52	-1.06	-1.58
O=C(CCc1nnn2c1CN(S(=O)(=O)c1ccccc1)CC2)NCc1ccccc1	-1.46	-2.16	-0.044	2.87	3.43
Cc1ocnc1C(=O)N1CCC2(CC1)CN(CC(C)c1ccccc1)C(=O)O2 (stereo unspecified)	-3.28	-8.18	-2.77	-14.7	10.5
CCc1ccc(CNC(=O)c2cc3n(n2)CC(C)(C(=O)NCCC(C)C)N(C)C3=O)cc1 (stereo unspecified)	2.48	4.6	3.13	3.83	1.14
C=C1C2(CCC(=O)OC2(C)C)CC(OC(=O)/C(C)=C/C)C2(C)C13OC14C(=O)OC(C)(C(=O)C12C(=O)OC4C)C3OC(C)=O (stereo unspecified)	1.58	5.55	4.89	-10.3	3.65
COc1ccc(OC)c2c1cc1n2CC(C)(C(=O)NC2CCCCC2)N(Cc2ccccc2C)C1=O (stereo unspecified)	-4.18	0.583	1.27	-0.772	-5.02
CN1C(=O)c2cc(C(=O)N3CCOCC3)nn2CC1(C)C(=O)NCc1ccc(F)cc1 (stereo unspecified)	1.3	1.96	-5.84	5.94	2.26
COc1cc(Nc2c(C#N)cnc3cc(OCCCN4CCN(C)CC4)c(OC)cc23)c(Cl)cc1Cl	-92.9	-93	-92.3	-96.4	-97.1
COc1cc(Nc2nc3c(S(=O)(=O)c4ccc(C)cc4)nnn3c3ccccc23)cc(OC)c1	-2	4.97	4.18	4.3	-3.08
CCn1cnnc1CC1CCN(C(=O)C2CCN(Cc3nc(-c4cccc(C)c4)oc3C)CC2)CC1	-7.74	-4.29	-25.3	-26.3	5.79
Cc1ccc(C(=O)Cn2nc3n(CC(C)C)c(=O)c4ccc(C(=O)NCC(C)C)cc4n3c2=O)cc1	-0.088	1.54	2.69	-5.13	3.2
O=S(=O)(c1cccc(-c2nc(-c3ccccc3)no2)c1)N1CCc2ccccc21	15.3	0.212	9.6	1.85	4.85
C=C[C@H]1C(O[C@@H]2O[C@H](CO)[C@@H](O)[C@H](O)[C@H]2O)OC=C2C(=O)N3CCc4c([nH]c5ccccc45)[C@H]3C[C@H]21 (stereo partly specified)	-8.76	5.79	6.04	-5.21	3.41

Structure (SMILES)	activity change, negative = inhibition [1] [%]	activity change, negative = inhibition [2] [%]	activity change, negative = inhibition [3] [%]	activity change, negative = inhibition [4] [%]	activity change, negative = inhibition [5] [%]
Cn1c(=O)c2ccc(C(=O)NC3CCCCC3)cc2n2c(SCc3c(F)cccc3Cl)nnc12	0.281	5.58	4.42	5.02	3.19
COc1ccc(Cl)cc1NC(=O)Nc1cc(C)nc2ccccc12		-1.08		-24.9	-2.76
CN(C)CCC(c1ccc(Br)cc1)c1ccccn1 (stereo unspecified)	0.793	4	-23.5	-11.4	-0.039
Cc1cc(C(=O)N2CCC(Cc3nc(-c4ccccc4)n[nH]3)C2)n(C)n1 (stereo unspecified)	-3.28	-4.03	-0.759	-11.2	7.96
COc1ccccc1N1CCN(CCCNc2c(C)c(=O)n(C)c(=O)n2C)CC1	-4.06	3.17	-0.105	-13	4.68
O=C1CC[C@@H](C(=O)N2CSC[C@H]2C(=O)O)N1 ([pGlu]-[Thz]-OH)	0.367	5	9.62	-9.2	4.24
CC(C)NC(=O)Cn1nc2n(Cc3ccccc3)c(=O)c3ccc(C(=O)NC(C)C)cc3n2c1=O	0.439	0.237	6.32	-3.74	2.82
C[C@@H]1O[C@@H](O[C@H]2[C@H](O[C@H]3[C@H](O[C@H]4CC[C@@]5(C)C(CC[C@]6(C)C5CC=C5[C@@H]7CC(C)(C)C[C@@H](O)[C@]7(C)CC[C@]56C)C4(C)C)O[C@H](C(=O)O)[C@@H](O)[C@@H]3O)O[C@H](C(=O)O)[C@H](O)[C@@H]2O)[C@H](O)[C@H](O)[C@H]1O (stereo partly specified)	-3.06	0.057	-0.773	-27.8	4.38
COc1cc(/C=C/C(=O)OC2CC(C)=C(C(=O)O)/C2=C/CO[C@@H]2O[C@H](CO)[C@@H](O)[C@H](O)[C@H]2O)ccc1O (stereo partly specified)	4.58	6.73	12.9	-3.8	10.4
c1ccc(-c2ccc(C(c3ccccc3)n3ccnc3)cc2)cc1 (stereo unspecified)		-10.4		-43.8	-11
CC(C)CCNC(=O)C1(C)Cn2c(ccc2-c2ccco2)C(=O)N1Cc1ccccc1Cl (stereo unspecified)	-3.38	3.36	2.48	-5.5	-2.1
Cc1ccc(C)c(Cn2nc3n(CCC(C)C)c(=O)c4ccc(C(=O)NC(C)C)cc4n3c2=O)c1	1.26	-0.008	11.3	-2.91	-1.95
CN1c2cccnc2CN(C2CCC(CO)CC2)CC[C@H]1CO (stereo partly specified)	0.1	1.13	0.291	1.68	2.92
Cc1cc(NS(=O)(=O)c2ccc3[nH]c4c(c3c2)CCCC4)ccc1Br	-1.83	4.55	-2.52	-5.57	1.81
CC(C)CNC(=O)N(C)C1CCc2nn(C)c(=O)n2CC1 (stereo unspecified)	-0.104	-0.834	2.75	-3.76	-6.03
COc1cccc(Nc2cc3c(cn2)CN(Cc2cccnc2)CCN3)c1	-15.6	-8.84	-91.6	-20.4	-19.2
CCCn1c(=O)c2ccc(C(=O)NCC(C)C)cc2n2c(=O)n(Cc3ccc(Cl)cc3)nc12	1.74	4.12	4.2	-0.119	0.642
COc1ccc(-c2noc(-c3cccn3CC(=O)Nc3cccc(Cl)c3C)n2)cc1F	-0.622	-2.48	0.532	-3.23	-3.69
